The list shows a part of the results.
B1: PhoQ; a variant is named by its letters at X, in order, P23837 (parent)
chain: MKKLLRLFFPLSLRVRFLLATAAVVLVLSLAYGMVALIGYSVSFDKTTFRLLRGESNLFYTLAKWENNKLHVELPENIDKQSPTMTLIYDENGQLLWAQRDVPWLMKMIQPDWLKSNGFHEIEADVNDTSLLLSGDHSIQQQLQEVREDDDDAEMTHSVAVNVYPATSRMPKLTIVVVDTIPVELKSSYMVWSWFIYVLSANLLLVIPLLWVAAWWSLRPIEALAKEVRELEEHNRELLNPATTRELTSLVRNLNRLLKSERERYDKYRTTLTDLTHSLKTPLXXLQXXLRSLRSEKMSVSDAEPVMLEQISRISQQIGYYLHRASMRGGTLLSRELHPVAPLLDNLTSALNKVYQRKGVNISLDISPEISFVGEQNDFVEVMGNVLDNACKYCLEFVEISARQTDEHLYIVVEDDGPGIPLSKREVIFDRGQRVDTLRPGQGVGLAVAREITEQYEGKIVAGESMLGGARMEVIFGRQHSAPKDE

Variants of: B1
Experiment: enrichment ratio after two sorts for PhoP signalling (ratio (wild type AVST 3.29)); higher = more functional
Settings: with PhoP (E. coli)

Variant	enrichment ratio
PQHG	≤ 0.25
MTWT	≤ 0.25
EAFH	≤ 0.25
SPWV	≤ 0.25
SGIG	5.8
HERA	≤ 0.25
DMED	≤ 0.25
SFAA	≤ 0.25
FSVP	≤ 0.25
FSRP	≤ 0.25
HTCK	≤ 0.25
RYDY	≤ 0.25
SCDC	≤ 0.25
PPLR	≤ 0.25
QACW	≤ 0.25
KMVM	≤ 0.25
QNNT	≤ 0.25
EMSV	≤ 0.25
VRAK	≤ 0.25
HRAV	≤ 0.25
VTDT	≤ 0.25
NYGM	≤ 0.25
TTCI	15.8
FCNS	≤ 0.25
FKKQ	≤ 0.25

Variant	enrichment ratio
YNHW	≤ 0.25
SNWF	≤ 0.25
GSAM	6.82
YGIF	1.46
VEKT	≤ 0.25
DMLY	≤ 0.25
MGVE	≤ 0.25
MYAF	≤ 0.25
PVHT	≤ 0.25
MEKY	≤ 0.25
WQCV	≤ 0.25
IHYT	≤ 0.25
PLHN	≤ 0.25
NHAL	≤ 0.25
YGFK	≤ 0.25
EKQY	≤ 0.25
ACSL	16.6
PWIR	≤ 0.25
DCNH	≤ 0.25
IFLI	≤ 0.25
YWWC	≤ 0.25
TPWC	≤ 0.25
ASSV	11
ALES	≤ 0.25
DEML	≤ 0.25

Variant	enrichment ratio
PYTL	≤ 0.25
VRMM	≤ 0.25
FISF	≤ 0.25
GYPL	≤ 0.25
QPLK	≤ 0.25
PPSE	≤ 0.25
PVNT	≤ 0.25
SGVE	≤ 0.25
ETTR	≤ 0.25
FEQY	≤ 0.25
IMKC	≤ 0.25
QEMK	≤ 0.25
AQIW	≤ 0.25
DQKC	≤ 0.25
KFCA	≤ 0.25
LYDI	≤ 0.25
GQNL	≤ 0.25
PPAY	≤ 0.25
RSTI	≤ 0.25
MSYA	2.62
TECY	16.2
LELW	≤ 0.25
LLSI	≤ 0.25
LYWR	≤ 0.25
YPDH	≤ 0.25

Variant	enrichment ratio
DLHD	≤ 0.25
FVSL	≤ 0.25
FCWL	≤ 0.25
ESNY	≤ 0.25
ICYW	≤ 0.25
NHGI	≤ 0.25
CLFT	≤ 0.25
YFIR	≤ 0.25
PFEI	≤ 0.25
LQEW	≤ 0.25
GHKV	≤ 0.25
INDS	≤ 0.25
GWFS	≤ 0.25
FHEC	≤ 0.25
EGCN	≤ 0.25
EVSR	≤ 0.25
NSLQ	0.291
DTNE	≤ 0.25
KEMW	≤ 0.25
IEKG	≤ 0.25
PQDC	≤ 0.25
LSSS	≤ 0.25
PVRR	≤ 0.25
GHNV	≤ 0.25
PRHR	≤ 0.25

Variant	enrichment ratio
ALRN	≤ 0.25
MCCH	≤ 0.25
GHVV	≤ 0.25
QQLY	≤ 0.25
WQKC	≤ 0.25
LPFE	≤ 0.25
TLSY	0.962
VYAW	≤ 0.25
VSYF	≤ 0.25
RTFS	≤ 0.25
STSN	11.3
FNQD	≤ 0.25
ERCA	≤ 0.25
KARY	≤ 0.25
DIWM	≤ 0.25
QHST	≤ 0.25
WKTR	≤ 0.25
IILD	≤ 0.25
NPMC	≤ 0.25
HQCI	≤ 0.25
GCEW	≤ 0.25
IQQE	≤ 0.25
CVSY	≤ 0.25
MVLP	≤ 0.25
VTNC	≤ 0.25

Variant	enrichment ratio
NDGV	≤ 0.25
KRIQ	≤ 0.25
PCVC	≤ 0.25
EDCN	≤ 0.25
GSFA	≤ 0.25
DNTM	≤ 0.25
HENQ	≤ 0.25
RQEL	≤ 0.25
VNEI	≤ 0.25
YYYR	≤ 0.25
SHCA	2.47
FNLI	3.91
NVSF	≤ 0.25
LKAE	≤ 0.25
VSII	≤ 0.25
FMWR	≤ 0.25
HYFF	≤ 0.25
SNYK	≤ 0.25
ALSA	1.32
IWKR	≤ 0.25
VGQT	≤ 0.25
HSPS	≤ 0.25
AGIG	9.23
CCIR	≤ 0.25
HGLP	≤ 0.25

Variant	enrichment ratio
DWSY	≤ 0.25
VSQR	≤ 0.25
QICF	≤ 0.25
GRRM	≤ 0.25
IWMY	≤ 0.25
FWWA	≤ 0.25
TEPH	≤ 0.25
YERQ	≤ 0.25
VGSQ	≤ 0.25
TGGH	9.94
IWWT	≤ 0.25
HHHQ	≤ 0.25
WFEQ	≤ 0.25
VNIR	≤ 0.25
INTV	≤ 0.25
VEHM	≤ 0.25
NVFH	≤ 0.25
RWTC	≤ 0.25
DFGP	≤ 0.25
SFKQ	≤ 0.25
PLGR	≤ 0.25
KKAC	≤ 0.25
YEWP	≤ 0.25
FERP	≤ 0.25
HDYK	≤ 0.25

Variant	enrichment ratio
QQCI	≤ 0.25
EKTN	≤ 0.25
YPMR	≤ 0.25
RLMQ	≤ 0.25
EEGA	≤ 0.25
YLKN	≤ 0.25
MAMI	8.98
LHSI	≤ 0.25
YMGK	≤ 0.25
MSSP	≤ 0.25
SNIN	0.491
SYKI	≤ 0.25
KEHI	≤ 0.25
DIRW	≤ 0.25
KIMH	≤ 0.25
EIEY	≤ 0.25
ARNV	≤ 0.25
KEVL	≤ 0.25
YHDR	≤ 0.25
NIMS	≤ 0.25

From a collection of fitness landscapes (doi:10.1126/science.1257360)
